# Values joined by “and” are separate entries in the source; they are usually repeats but may differ in a detail not shown here. Equal entries are not always repeated. Screen size: about 420,000 compounds; about 50,000 (12%) were called active. Inconclusive results, whose numbers are uncertain, are shown with a selection of clear calls. Calls come from the whole dose curve; as a rule, active = well fitted inhibition curve with a large enough effect; inconclusive = small, poorly fitted or top-dose-only effect; inactive = flat fitted curve, though single readings scatter. Potencies beside an inconclusive call are fits to weak or partial responses and may not hold up.
# Experiment: qHTS for Inhibitors of human tyrosyl-DNA phosphodiesterase 1 (TDP1): qHTS in cells in presence of CPT; note: nearly all actives have a fitted effect of over 55% in size
# Conditions: chicken DT40 Tdp1-/-;hTDP1 cells + 20 nM CPT, ATP luminescence, 48 h; activity change, negative = growth inhibition: at 46.2 µM (top of the series) unless noted
# Procedure, shortened: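 Chicken DT40 Tdp1-/- cells stably complemented with human TDP1 were seeded at 400 cells/well in medium containing 20 nM camptothecin, exposed to pin-transferred compounds, and grown at 37 °C for at least 48 hr. Viability was read as ATP luminescence.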
# % is set by controls: 0 for no effect and ±100 for the full control effect; potency is the fitted concentration of half-maximal effect; tags give direction and shape of the fitted curve.
Compound,Potency,"activity change, negative = growth inhibition"
CC(=O)c1sc(NC(=O)c2cnc(Cl)c(Cl)c2)nc1C,"inconclusive: 16.4 µM [inhibitor, partial curve]",
O=C(Nc1nnc([C@H]2C[C@H](O)[C@@H](CO)O2)s1)c1cccc(OC(F)(F)F)c1,,inactive: -12.9%
O=[N+]([O-])c1ccc2nc(-c3ccc(Cl)cc3)[nH]c2c1,"inconclusive: 29.1 µM [inhibitor, single point]",
COc1ccc2cc(CN(CCO)C(=O)c3ccccc3F)c(=O)[nH]c2c1,,inactive: -10.6%
CC1(C)CC(=O)C=C(c2cccc(OC(=O)c3ccc(Br)cc3)c2)C1=O,,inactive: -22.8%
O=C(/C=C/c1ccc(Br)cc1)N1CCN(c2cccc(C(F)(F)F)c2)CC1,"inconclusive: 29.1 µM [inhibitor, single point]",
CN1C(=O)/C(=N\OC(=O)c2ccccc2Cl)c2ccccc21,active: 23.1 µM,
O=c1c2ccccc2ncn1-c1ccccc1C(F)(F)F,,inactive: -15.3%
Cc1ccc(C)c(NS(=O)(=O)c2cc(Br)cnc2N)c1,"inconclusive: 29.1 µM [inhibitor, single point]",
CCCCN1C(=O)C(CC(=O)NCCCCc2ccccc2)CC(C(=O)N(C(C)C)C(C)C)=C1C (stereo unspecified),"inconclusive: 29.1 µM [inhibitor, single point]",
COc1ccc(OC)c(C=C2CCc3ccccc3C2=O)c1,active: 20.6 µM,
COc1cccc(NC(=O)CCC2CCN(C(=O)C(OC)c3ccccc3)CC2)c1 (stereo unspecified),active: 16.4 µM,
O=C(CSCc1ccccc1)Nc1ccc(F)cc1F,,inactive: -6.86%
COc1ccc(NC(=O)C2=CC(c3cccs3)=NS(=O)(=O)N2C)cc1,"inconclusive: 25.9 µM [inhibitor, single point] and inconclusive: 29.1 µM [inhibitor, single point]",
COc1ccc(CC(=O)Nc2nc3c(s2)CC(C(C)(C)C)CC3)cc1 (stereo unspecified),"inconclusive: 29.1 µM [inhibitor, single point]",
COc1cccc(CN(C)C(=O)CCC(=O)c2cc(Br)ccc2OC)c1,"inconclusive: 23.1 µM [inhibitor, single point]",
COC(=O)c1cc(OC)c(OC)c(OC)c1NC(=O)c1ccc(S(=O)(=O)N(C)C)cc1,,inactive: -3.71%
CCCCN1C[C@H](c2ccc(OC)cc2)[C@@H](CC(=O)Nc2ccc(Br)cc2)C1=O,"inconclusive: 16.4 µM [inhibitor, single point]",
O=C(CSc1nnc(C2CC2)n1CC1CCCO1)Nc1cccc(Cl)c1 (stereo unspecified),,inactive: -8.2%
Cc1ccc(Nc2c([N+](=O)[O-])cc(C(=O)N3CC(=O)Nc4ccccc43)cc2[N+](=O)[O-])c(C)c1,active: 14.6 µM,
Cc1cc(C)nc(N2CCCC(C(=O)NC3CCCC3)C2)n1 (stereo unspecified),,inactive: -30%
Cc1ccc(OCC(=O)Nc2ccc(C)c(F)c2)c([N+](=O)[O-])n1,,inactive: -11.1%
C[C@@H]1C[C@H]2[C@@H]3C[C@H](F)C4=CC(=O)C=C[C@]4(C)[C@@]3(F)[C@@H](O)C[C@]2(C)[C@@]1(O)C(=O)COC(=O)C(C)(C)C,active: 23.1 µM,
O=C(Nc1ccc(O)c2c(=O)cc(-c3cccc(Cl)c3)oc12)c1ccc(F)cc1,"inconclusive: 29.1 µM [inhibitor, single point]",

Compound,Potency,"activity change, negative = growth inhibition"
O=C(CC1Sc2ncnn2C1=O)Nc1ccc(Br)cc1 (stereo unspecified),active: 2.06 µM,
CC(C)C(NS(=O)(=O)c1cccs1)C(=O)N1CCC(C(N)=O)CC1 (stereo unspecified),,inactive: -3.22%
COc1ccc(OC)c(NC(=O)C2(C)CCN2C(=O)CCC2CCCC2)c1 (stereo unspecified),active: 16.4 µM,
Cc1ccc2nc(-c3ccc(C#N)cc3)c(Cc3ccccc3C(F)(F)F)n2c1,active: 23.1 µM,
CN1C(=O)N(CC(=O)Nc2cccc(S(=O)(=O)N(C)c3ccccc3)c2)C(=O)C12CCCCC2,"inconclusive: 29.1 µM [inhibitor, single point]",
O=Cc1c(-[n+]2ccccc2)nc([O-])n1-c1ccccc1,"inconclusive: 29.1 µM [inhibitor, single point]",
CCOc1ccc(-n2cc(C(=O)NC(C)C)c3cc(OC)c(OC)cc3c2=O)cc1,"inconclusive: 29.1 µM [inhibitor, single point]",
Cn1nc(C(=O)Nc2cccc(C(F)(F)F)c2)c2ccccc2c1=O,,inactive: 2.61%
COc1cccc(Nc2ccc([N+](=O)[O-])c3nonc23)c1,"inconclusive: 3.66 µM [inhibitor, single point]",
CC(=O)c1ccc(NC(=O)C(C)Oc2ccc(N(C)S(=O)(=O)c3ccc(C)cc3)cc2)cc1 (stereo unspecified),"inconclusive: 8.2 µM [inhibitor, partial curve]",
Nc1nc(NCc2ccccc2)nc(NCc2ccccc2)c1[N+](=O)[O-],,inactive: -4.21%
CCCn1c(=O)c(C(=O)NCCc2ccc(OC)c(OC)c2)c(O)c2ccccc21,"inconclusive: 20.6 µM [inhibitor, partial curve, poor fit]",
NC(=O)CC(NC(=O)c1cccc(Br)c1)c1ccc(NC2CCCCCCCCCCC2)c([N+](=O)[O-])c1 (stereo unspecified),,inactive: 2.39%
CCc1ccc(-c2nc(CSCC(=O)NCc3ccccc3OC)c(C)o2)cc1,active: 20.6 µM,
Cc1ccc(-c2nc3ccccn3c2Nc2ccccc2C)o1,"inconclusive: 22.4 µM [inhibitor, single point]",
O=C(NCCc1ccccc1)C1CCN(S(=O)(=O)c2ccc(-c3nn[nH]n3)cc2)CC1,,inactive: 14.4%
CCCS(=O)(=O)N1CCN=C1SCc1cccc(C)c1,,inconclusive: -34.5% [inhibitor]
CCOC(=O)C1CCN(C(=O)c2cc(S(=O)(=O)N3CCOCC3)ccc2C)CC1,,inactive: -15.9%
Cc1ccc(-n2nnnc2-c2cnoc2-c2cccc(F)c2)cc1,active: 25.9 µM,
CC1(C)CC(=O)C2=C(C1)N=c1s/c(=C/c3ccc(F)c(F)c3)c(=O)n1C2c1ccc(F)cc1 (stereo unspecified),"inconclusive: 18.4 µM [inhibitor, single point]",
CC(Oc1ccccc1)C(=O)N=C1SC2CS(=O)(=O)CC2N1c1cccc(F)c1 (stereo unspecified),,inactive: -2.92%
Cc1ccc(C)c(NC(=O)CCN2CCc3ccccc3C2)c1,"inconclusive: 29.1 µM [inhibitor, single point]",
COc1cc(C(=O)NCCCCc2ccccc2)cc(OC)c1OC,"inconclusive: 25.9 µM [inhibitor, single point]",
COC(=O)CN1C(=O)C2(C(C#N)=C(N)Oc3c2c(C)nn3-c2ccccc2)c2ccccc21 (stereo unspecified),"inconclusive: 25.9 µM [inhibitor, single point]",

Compound,Potency,"activity change, negative = growth inhibition"
COc1ccc(C(=O)/C=C/c2ccc(N(C)C)cc2)c(OC)c1,active: 7.31 µM,
CC(C)NC(=O)Nc1ccc2c(c1)N(C)C(=O)c1ccccc1S2,"inconclusive: 25.9 µM [inhibitor, single point]",
COc1ccc(-c2nc3scc(CCNS(=O)(=O)c4ccc(F)cc4F)n3n2)cc1OC,"inconclusive: 16.4 µM [inhibitor, single point]",
CSCCC(=O)NC1CC(C)(C)Cc2c1cnn2-c1ccccc1C (stereo unspecified),"inconclusive: 29.1 µM [inhibitor, single point]",
Cc1cccc(C)c1NC(=O)C(c1ccccc1OC(F)(F)F)N1CCN(c2ccc(F)cc2)CC1 (stereo unspecified),"inconclusive: 25.9 µM [inhibitor, single point]",
COc1ccc(OC)c(S(=O)(=O)N2CCC(C(=O)Nc3cccc(C(F)(F)F)c3)CC2)c1,active: 18.4 µM,
Cc1ccc(-c2nn3c(C)nnc3s2)cc1NC(=O)COc1ccc(Cl)cc1,"inconclusive: 18.4 µM [inhibitor, partial curve, poor fit]",
O=C(NCCc1ccccc1)c1ccc2c(c1)N(Cc1ccccc1Cl)C(=O)c1ccccc1S2,"inconclusive: 6.51 µM [inhibitor, partial curve]",
O=C(COC(=O)C1(c2cccc(F)c2)CCCC1)NCc1ccc2c(c1)OCO2,"inconclusive: 29.1 µM [inhibitor, single point]",
Cc1nn(Cc2noc(C(=O)NCc3ccc(F)cc3)n2)c(C)c1Br,"inconclusive: 29.1 µM [inhibitor, single point]",
COc1ccc(N)cc1C#N,"inconclusive: 5.8 µM [inhibitor, full curve]",
O=c1cc(-c2ccccc2)[nH]n1-c1ccccc1,"inconclusive: 29.1 µM [inhibitor, single point]",
Cc1oc(-c2ccc(Cl)cc2)nc1CN1CCC(C(=O)NCc2cccs2)CC1,"inconclusive: 23.1 µM [inhibitor, single point]",
CCOC(=O)c1[nH]c(C)c(C(=O)NCc2ccccn2)c1C,,inactive: -8.01%
O=C(CSC1=NCCN1)NC(c1ccccc1)c1ccccc1,"inconclusive: 20.6 µM [inhibitor, single point]",
CC(NC(=O)C1CCN(S(=O)(=O)N2CCCCCC2)CC1)c1ccccc1 (stereo unspecified),"inconclusive: 20.6 µM [inhibitor, single point]",
Cc1ccc(N/N=C/c2c(O)cc(C)oc2=O)cc1,"inconclusive: 25.9 µM [inhibitor, single point]",
Oc1ccc(C[C@@H]2CNCCN2CC2CCCCC2)cc1,active: 16.4 µM,
CCCNC(=O)C1(C)CCN(C(=O)c2ccccc2OC(F)(F)F)C1 (stereo unspecified),,inactive: -16.5%
CCOC(=O)c1cccc(NC(=O)CSc2ncc3c(n2)-c2ccccc2N(C)S3(=O)=O)c1,,inactive: -1.2%
Cc1ccc(C2N(c3cccc(Cl)c3)C(=O)N3CCCN23)cc1 (stereo unspecified),"inconclusive: 25.9 µM [inhibitor, single point]",
COc1ccccc1CNC(=O)C(Cc1ccccc1)NS(=O)(=O)c1ccc2c(c1)oc(=O)n2C (stereo unspecified),active: 20.6 µM,
O=C(Cc1c[nH]c2ccccc12)NCc1ccc(Cl)cc1Cl,,inactive: -9.97%

# Reference: PubChem BioAssay AID686979 (National Center for Advancing Translational Sciences (NCATS), 2013)
